Results as given in PubChem BioAssay AID485344 (National Center for Advancing Translational Sciences (NCATS), 2010).
In all, about 340,000 compounds went through this assay and about 6,900 (2%) were called active. Cut-off read from the data, not from the text of the source: active = inhibition above about 30%; inactive = below that, where a call was filed. This is a selection; strong and weak results do not stand in their true shares. Where no call is shown, the source filed none.
Note: 0% is about no effect.

The compounds below were run against D(2) dopamine receptor (Homo sapiens) (UniProt P14416) (assay: HTS Assay for Allosteric Antagonists of the Human D2 Dopamine Receptor: Primary Screen for Antagonists). Settings: HEK293 TREx D2 cells, calcium flux, dopamine EC80; at 10 µM; stronger effect = higher value.
UniProt P14416, sequence (P14416 whole entry, looked up): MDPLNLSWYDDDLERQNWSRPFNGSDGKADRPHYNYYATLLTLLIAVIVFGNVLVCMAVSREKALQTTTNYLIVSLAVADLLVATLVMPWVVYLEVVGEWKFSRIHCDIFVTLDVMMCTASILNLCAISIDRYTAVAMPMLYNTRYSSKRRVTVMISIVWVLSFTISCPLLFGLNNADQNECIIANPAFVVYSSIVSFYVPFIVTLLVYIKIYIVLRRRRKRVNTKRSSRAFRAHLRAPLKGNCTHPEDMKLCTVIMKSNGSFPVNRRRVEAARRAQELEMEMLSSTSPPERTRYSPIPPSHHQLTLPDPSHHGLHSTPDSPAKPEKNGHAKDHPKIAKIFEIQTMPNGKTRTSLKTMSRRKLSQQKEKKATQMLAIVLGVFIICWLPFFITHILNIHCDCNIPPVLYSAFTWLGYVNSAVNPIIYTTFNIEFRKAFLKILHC
Procedure, shortened: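 Inhibition of EC80 dopamine-driven calcium flux, recorded kinetically, defines activity here; cells are a tetracycline-induced HEK293 T-REx line expressing force-coupled D2.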
CCOc1ccccc1N(CC)C(=O)c1ccc2c(=O)n3c(nc2c1)CCCCC3 showed an inhibition of 17.2%. In the case of CC(C)NC(=O)CCSc1nc(-c2ccc3c(c2)OCO3)cc(C(F)(F)F)n1, the inhibition is reported as 1.58%. With c1ccc(Cc2cc[n+](Cc3ccccn3)cc2)cc1 the inhibition was active: 42%. For Cc1cccc(C)c1NC(=O)CSc1nc(-c2cccs2)cc(C(F)(F)F)n1, the inhibition was -5.79%. For Cc1cn2c(=O)cc(COc3ccc(C(C)(C)C)cc3)nc2s1, the inhibition was 1.13%. CCOc1ccccc1NC(=O)NCc1ccccc1 was tested, and the inhibition was active: 42.2%. CCOC(=O)c1c(C)[nH]c(N=Nc2cccc(C)c2)c1C was tested, and the inhibition was active: 32.7%. CN(Cc1ccccc1)C(=O)CSc1c2c(nc3ccc(Cl)cc13)CCCC2 was tested, and the inhibition was -1.19%. Cc1ccc(-c2c(CN3CCN(c4cccc(C)c4C)CC3)csc2C)cc1 showed an inhibition of -28.2%. COc1ccc(NC(=O)NCCCN2CCN(c3ccccc3F)CC2)cc1 was tested, and the inhibition was active: 91.5%. COc1ccc(-n2nc(C(=O)NCCc3ccc(Cl)cc3)c3c4ccccc4n(C)c3c2=O)cc1 showed an inhibition of 8.33%. COc1ccc(C2c3c(-c4ccccc4)n[nH]c3C(=O)N2c2ccc(C(=O)O)cc2)c(OC)c1 (configuration not stated) showed an inhibition of 10.7%. With CC(Sc1nccn1C)C(=O)Nc1ccc(Cl)cn1 (configuration not stated) the inhibition was active: 48.9%. In the case of COc1cc(NC(=O)Cn2c(-c3ccccc3)cc(C(C)=O)c2C)cc(OC)c1, the inhibition is reported as 13.4%. With Cc1ccc(-c2cnc(C3CC3)o2)cc1S(=O)(=O)Nc1cccc(C#N)c1 the inhibition was 13.4%. For COC(=O)c1ccc2c(c1)sc(=NC(=O)c1ccc(S(=O)(=O)N3CCCCC3)cc1)n2C, the inhibition was -7.33%. COc1ccc(NC(=O)CCS(=O)(=O)c2cc3c(cc2C)NC(=O)CO3)cc1Cl gave an inhibition of 11.1%. For CCCc1cnc2c(c1SCC(=O)Nc1ccc([N+](=O)[O-])cc1)c(=O)n(C)c(=O)n2C, the inhibition was -6.94%. Compound Cc1ccc(Cl)cc1NC(=O)c1sc2nc(C)c(C)c(C)c2c1N has an inhibition of 21.7%. For CCOC(=O)c1ccccc1NC(=O)N(Cc1ccc(CC)cc1)Cc1cn[nH]c1-c1ccc(OC)cc1, the inhibition was -0.249%. Compound Cc1cccc(NC(=O)c2cccc(N3CCCS3(=O)=O)c2)c1 has an inhibition of 4.01%. With O=C(COc1ccc(F)cc1)Nc1ccc(OCc2cc(=O)n3ccsc3n2)cc1 the inhibition was -21.1%. Work on Cc1ccc(CNC(=O)CN2Cc3ccccc3C2=O)cc1 yielded an inhibition of -5.27%. Cc1ccccc1NC(=O)Cn1c(=O)n(CCC(=O)N2CCc3ccccc3C2)c(=O)c2ccccc21 gave an inhibition of -13.4%. For CCC1CN(C(=O)N2CCC(C(=O)NCCCc3ccccc3)CC2)c2cc(C)ccc2O1 (configuration not stated), the inhibition was -2.81%. COc1ccc(OCC(=O)N/N=C(/C)Cc2ccccc2)cc1 was tested, and the inhibition was active: 31.6%. Work on COc1ccc(NS(=O)(=O)c2cc(-c3onc(C)c3C)ccc2C)c(OC)c1 yielded an inhibition of 0.895%. In the case of Cc1cccc(C)c1NC(=O)CCSc1nc(-c2ccc3c(c2)OCO3)cc(C(F)(F)F)n1, the inhibition is reported as -0.419%. In the case of CCCC12CN3CC(CCC)(CN(C1)C3c1ccc(OCc3ccccc3)cc1)C2=O (configuration not stated), the inhibition is reported as -4.4%. In the case of CCOC(=O)c1[nH]c2c(c1-c1ccccc1)C(=O)CC(c1ccccc1)C2 (configuration not stated), the inhibition is reported as active: 30.8%. Cc1ccc(Nc2ccc(N3CCN(C(=O)c4cccc([N+](=O)[O-])c4)CC3)nn2)cc1 showed an inhibition of -4.15%. In the case of COc1ccccc1NC(=O)CN(C)S(=O)(=O)c1cccc2cccnc12, the inhibition is reported as -6.02%. With O=C(CSc1ncc2c(n1)-c1ccccc1N(Cc1ccc(Cl)cc1)S2(=O)=O)c1ccc(Cl)cc1 the inhibition was 0.615%. For CC(C)(C)NC(=O)C1c2ccccc2Oc2ccccc21, the inhibition was active: 46.7%. In the case of COc1ccc(CNC(=O)CN(C(=O)c2snc(C(N)=O)c2N)c2ccc(OC)c(OC)c2)cc1, the inhibition is reported as active: 31.5%. CCOC(=O)c1ccc(NC(=O)CN2C(=O)C(C)(C)c3ccccc32)cc1 showed an inhibition of 3.35%. Work on Cc1ccc(C)c(NC(=O)c2cnn(-c3ccc(F)cc3F)c2C2CCNCC2)c1 yielded an inhibition of -18.3%. For CCN(C(=O)c1sc2nc3n(c(=O)c2c1C)CCCC3)c1ccccc1F, the inhibition was 16.9%. CC(=O)c1ccc(NC(=O)CSc2nnc3ccc(-c4ccc(F)cc4)nn23)cc1 gave an inhibition of -21%. With COc1cc(C2C(C#N)=C(N)Oc3n[nH]c(-c4cccnc4)c32)ccc1OCC(N)=O (configuration not stated) the inhibition was active: 30.2%. With Cc1ccc(CCNC(=O)c2cc(-c3ccccc3)n[nH]2)cc1 the inhibition was 17.2%. COc1ccc(/C=C/C(=O)O)cc1COc1cccc(C)c1 was tested, and the inhibition was active: 40.3%. Work on CCC1=C(c2ccc(C)cc2)S(=O)(=O)N=C1N1CCC(C(=O)Nc2ccccc2C(=O)OC)CC1 yielded an inhibition of -0.982%. For Cc1cn2c(=O)cc(COc3ccc(NC(=O)c4ccc(C(C)(C)C)cc4)cc3)nc2s1, the inhibition was 15.3%. For COc1ccc(CNC(=O)CCc2c(C)nn(-c3ccc(N4CCOCC4)nn3)c2C)c(OC)c1, the inhibition was -5.41%. For CN(C)c1ccc(C(CNC(=O)c2ccc(C(C)(C)C)cc2)N2CCCC2)cc1 (configuration not stated), the inhibition was 14.4%. For Cc1cccc(C(=O)Nc2ccc(O)c3c(=O)cc(-c4ccccc4Cl)oc23)c1, the inhibition was active: 30.9%. Compound Cc1cccc(NC(=O)C2CCCN2S(=O)(=O)c2cccc3nsnc23)c1C (configuration not stated) has an inhibition of 3.22%. Cc1cc(O)c(C(c2ccccc2)N2CCC(C)CC2)c(=O)n1Cc1ccco1 (configuration not stated) showed an inhibition of 0.61%. Cc1nn(-c2ccc(N3CCCC3)nn2)c(C)c1CCC(=O)N1CCN(c2ccccc2F)CC1 showed an inhibition of 14.5%. With O=C(C1CCC1)N1CCc2cc(S(=O)(=O)NCCc3ccccc3)ccc21 the inhibition was -8.78%. CCOC(=O)CCc1c(C)nc2c(c(C)nn2-c2ccc(C)cc2)c1C was tested, and the inhibition was 1.31%. With COc1ccccc1NC(=O)c1ccc2c(c1)nnn2C the inhibition was active: 71%. NC(=O)C1CCCNC1 (configuration not stated) was tested, and the inhibition was active: 46.6%. Work on COc1ccc(-c2nc(SCC(=O)NCc3ccccc3Cl)n[nH]2)cc1 yielded an inhibition of -9.38%. Cc1ccc(Cn2c(CCNC(=O)C(C)C)nc3ccccc32)cc1 was tested, and the inhibition was 17.7%. COc1ccc(CNC(=O)CCNS(=O)(=O)c2ccc3c(c2)CCCC(=O)N3)cc1 was tested, and the inhibition was -2.64%. With Cc1ccc(Cl)cc1N(C)C(=O)C1CCCN(c2ncnc3onc(-c4ccc(F)cc4)c23)C1 (configuration not stated) the inhibition was 7.95%. Clc1cccc(-n2cc(-c3ccccc3)c3c(NC4CCCC4)ncnc32)c1 was tested, and the inhibition was 7.01%. With COc1ccccc1NC(=O)CSc1nc2c(oc3ccccc32)c(=O)n1Cc1ccco1 the inhibition was 15.3%. Work on COc1ccc(NC(=O)C2CCCN(S(=O)(=O)c3cccc4nonc34)C2)cc1Cl (configuration not stated) yielded an inhibition of 4.52%. With Cc1ccc(-c2nnc3c4ccccc4c(C)nn23)cc1NC(=O)c1cccc(Br)c1 the inhibition was 3.38%. For O=C(NCC(c1ccco1)N1CCCC1)c1cc2ccccc2s1 (configuration not stated), the inhibition was active: 35.3%. In the case of O=C(NCc1cccc(Cl)c1)NCc1noc2ccccc12, the inhibition is reported as 11.1%. CCCCN(CC)C(=O)CCCn1c(=O)c2cccn2c2ccccc21 gave an inhibition of 8.66%. With Cc1nn(-c2ccccc2)c(Cl)c1C(=O)NCc1cccs1 the inhibition was active: 44.5%. Cc1ccc(CNC(=O)CN2C(=O)CC(c3ccc(C)c(C)c3)=Nc3ccccc32)cc1 showed an inhibition of -10.9%. With Clc1cccc2c1CCN(Cc1nc(-c3cnccn3)no1)C2 the inhibition was active: 40%. Cc1cccc(CN2CCC(CNc3ncnc4onc(-c5ccc(Cl)cc5)c34)CC2)c1 was tested, and the inhibition was 1.56%. For CCCOc1ccc(C2c3c(oc4ccc(F)cc4c3=O)C(=O)N2CCc2ccc(OC)cc2)cc1 (configuration not stated), the inhibition was 15.3%. Compound Cc1ccc(CSc2nc3cccnc3n2Cc2ccc(C(=O)NC3CCCCC3)cc2)cc1 has an inhibition of 21%. For CC(=O)Nc1nonc1-c1nnc(SCC(=O)Nc2ccc(C)c(Cl)c2)n1C, the inhibition was 3.15%. In the case of CC(C)(C)C1CCC(OCC(O)CN2CCN(c3ccccc3)CC2)CC1 (configuration not stated), the inhibition is reported as active: 73.6%. CCOc1ccc2c(c1)c(=O)c(S(=O)(=O)c1ccc(C)cc1)cn2Cc1ccccc1Cl showed an inhibition of -3.46%. Work on CCOC(=O)c1cnc(N2CCN(c3ccc(OC)cc3)CC2)c2ccccc12 yielded an inhibition of -19.3%. CCN1CCN(c2ncnc3c2cnn3-c2cc(Cl)ccc2C)CC1 was tested, and the inhibition was -19.5%. CCOC(=O)c1c(S(=O)(=O)NCC(=O)N(C)Cc2ccccc2)c(C)n(C)c1C was tested, and the inhibition was -7.27%. COc1ccccc1N1CCN(c2ncnc3c2c(-c2ccccc2)cn3-c2cccc(C)c2)CC1 gave an inhibition of 6.88%. With CC1CCN(S(=O)(=O)c2csc(C(N)=O)c2)CC1 the inhibition was 1.22%. With CC(O)(CS(=O)(=O)c1ccc(Br)cc1)c1ccccc1 (configuration not stated) the inhibition was active: 31.2%. O=C(Cc1csc(Nc2nc(=S)[nH]c3ccccc23)n1)NCCCN1CCN(c2ccccc2F)CC1 was tested, and the inhibition was active: 67.4%. For O=C(Nc1ccccc1)c1ccc(CN2CCc3ccccc3C2)cc1, the inhibition was active: 54.2%. Compound CSc1ccc(CCNC(=O)c2c(C)oc3ncn(C)c(=O)c23)cc1 has an inhibition of -9.01%. For COc1ccc(Br)cc1CN1CCN(Cc2c[nH]c3ccccc23)CC1, the inhibition was active: 86.8%. In the case of Cc1cccc(Cn2c(Cc3ccccc3)nc3ccccc32)c1, the inhibition is reported as -2.24%. For COc1ccc(CCN2CCC(CNC(=O)c3cnn(-c4cccc(Cl)c4)c3C3CCN(C(=O)OC(C)(C)C)CC3)CC2)cc1, the inhibition was 15.1%. With COc1ccc(N2CCN(C(=O)C3CCN(c4nc5ccc(C)cc5[nH]4)CC3)CC2)cc1 the inhibition was 2.48%. Compound CCOC(=O)c1ccc(NC(=O)CCc2nc3cccnc3n2Cc2cccs2)cc1 has an inhibition of 17.5%. In the case of Cc1cccc(NC(=O)/C(C#N)=C/c2ccc(C)o2)c1, the inhibition is reported as -17%. Cc1ccc(S(=O)(=O)c2cn(CC(=O)Nc3ccc(Cl)cc3)c3ccc(F)cc3c2=O)cc1C showed an inhibition of -2.65%. For O=C(NCCCN1CCCCC1)c1ccc2c(c1)NC(=O)C(N1CCCCC1)S2 (configuration not stated), the inhibition was active: 46.9%. CCOC(=O)c1c(NC(=O)c2cc(CC)on2)sc(C(C)=O)c1C showed an inhibition of -4.05%. With COc1cc(C2CC(=O)Nc3c2c(=O)n(C)c2ncnn32)cc(OC)c1OC (configuration not stated) the inhibition was 17.5%. In the case of COC(=O)c1c(CSc2ccc(Cl)cc2)noc1C(=O)NCc1ccco1, the inhibition is reported as active: 37.6%. For CCC(=O)Nc1cccc(-c2nc3cc(C)ccc3o2)c1, the inhibition was 4.05%. For O=C(O)/C=C/C(=O)N1CCN(S(=O)(=O)c2cccc(C(F)(F)F)c2)CC1, the inhibition was active: 31.1%. CC(=O)c1ccc(N2CCN(c3ccc4cc(S(=O)(=O)N5CCC(C)CC5)ccc4n3)CC2)cc1 gave an inhibition of 5.62%.
